These results are taken from the BET-seq Pho4 binding data (Le et al. 2018).

This is one part of the list. The energies were worked out here from pooled read counts, against the library average; single values are noisy.

The test has as its target T1, Pho4 (S. cerevisiae) (UniProt P07270).
T1 sequence: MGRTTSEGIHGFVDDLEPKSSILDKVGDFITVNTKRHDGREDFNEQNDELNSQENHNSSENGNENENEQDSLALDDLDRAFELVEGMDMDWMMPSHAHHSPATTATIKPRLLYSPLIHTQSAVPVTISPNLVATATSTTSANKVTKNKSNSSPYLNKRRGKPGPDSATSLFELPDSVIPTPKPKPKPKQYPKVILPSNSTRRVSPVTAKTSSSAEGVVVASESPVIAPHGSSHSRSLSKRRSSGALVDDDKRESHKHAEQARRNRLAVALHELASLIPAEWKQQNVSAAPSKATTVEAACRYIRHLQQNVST
The test is described as follows: relative binding free energy (BET-seq); higher = weaker binding. Particulars: reference: library average.
In the case of CTCGGCACGTGGATGG, the “relative binding free energy” value is -0.14 kcal/mol.
For the sequence AGTATCACGTGTTTTG, the “relative binding free energy” value stood at 0.16 kcal/mol.
With TAGTGCACGTGGGACA, the “relative binding free energy” value is -0.1 kcal/mol.
Turning to CGTGACACGTGAGGCG, the “relative binding free energy” value was 0.19 kcal/mol.
AATGTCACGTGATGTT: the “relative binding free energy” value worked out at 0.21 kcal/mol.
As to GGATTCACGTGTTGTT, the “relative binding free energy” value came out at 0.32 kcal/mol.
In the case of GGAATCACGTGGGAAG it was 0.04 kcal/mol; in that of GAGGGCACGTGGTAGC, -0.08 kcal/mol.
In the case of ACAGTCACGTGGGGGG it was -0.13 kcal/mol.
CTATACACGTGTGAGT: the “relative binding free energy” value came to 0.24 kcal/mol.
As for GTTGACACGTGTATCA, the “relative binding free energy” value turned out to be 0.22 kcal/mol.
For the sequence AGGAGCACGTGGTTAG, the “relative binding free energy” value was -0.15 kcal/mol.
With TAGGGCACGTGGTCGC, the “relative binding free energy” value is -0.25 kcal/mol.
In the case of TGTTTCACGTGCATTA it was 0.34 kcal/mol.
TAGTTCACGTGCATGT: the “relative binding free energy” value turned out to be 0.16 kcal/mol.
Take GGATTCACGTGCTGTG: the “relative binding free energy” value is 0.19 kcal/mol.
For the sequence TAGTCCACGTGGAGTT, the “relative binding free energy” value was found to be 0.17 kcal/mol.
TCGTTCACGTGTAGAG: the “relative binding free energy” value was 0.24 kcal/mol.
In the case of ATAATCACGTGCATGT it was 0.06 kcal/mol; in that of CAAATCACGTGGTGTT, 0.04 kcal/mol; in that of GGGGTCACGTGTACGT, 0.22 kcal/mol.
TTTCACACGTGGGGTT: the “relative binding free energy” value was -0.13 kcal/mol.
TGATTCACGTGCGGGC: the “relative binding free energy” value turned out to be 0.36 kcal/mol.
On to AAGAGCACGTGGATTT, for which the “relative binding free energy” value is -0.04 kcal/mol.
Turning to TTTGCCACGTGTAATG, the “relative binding free energy” value is -0.02 kcal/mol.
In the case of TTAGTCACGTGGTTAC, the “relative binding free energy” value was determined as 0.08 kcal/mol.
For the sequence TTGTTCACGTGTATAC, the “relative binding free energy” value was 0.2 kcal/mol.
In the case of TGTGTCACGTGTAACT, the “relative binding free energy” value stood at 0.18 kcal/mol.
With AGTTGCACGTGAATCG, the “relative binding free energy” value was found to be 0.21 kcal/mol.
As to TGATGCACGTGATTAG, the “relative binding free energy” value amounted to 0.03 kcal/mol.
As for AGAGTCACGTGGGTTG, the “relative binding free energy” value was 0 kcal/mol.
For the sequence ATCGTCACGTGTTGCT, the “relative binding free energy” value came to 0.13 kcal/mol.
ATTGGCACGTGTGTGG: the “relative binding free energy” value is -0.03 kcal/mol.
In the case of TGTAACACGTGGTTCA it was -0.12 kcal/mol; in that of AATGGCACGTGAATGG, 0.06 kcal/mol.
In the case of GAGTTCACGTGGGAAT, the “relative binding free energy” value is 0.43 kcal/mol.
Regarding GGTAACACGTGATGGA, the “relative binding free energy” value was found to be 0.11 kcal/mol.
Regarding CGTTTCACGTGTGTCT, the “relative binding free energy” value stood at 0.26 kcal/mol.
As for AAGGTCACGTGTTCTG, the “relative binding free energy” value amounted to 0.12 kcal/mol.
In the case of GGTAACACGTGAGAGG, the “relative binding free energy” value was found to be 0.23 kcal/mol.
With ATAGTCACGTGGTAGC, the “relative binding free energy” value was found to be 0.06 kcal/mol.
As to GTCTACACGTGGTAGG, the “relative binding free energy” value was determined as 0.21 kcal/mol.
For TCGGTCACGTGATTGG, the “relative binding free energy” value was 0.28 kcal/mol.
Regarding TTGTACACGTGGAAGG, the “relative binding free energy” value was 0.08 kcal/mol.
In the case of GGCGTCACGTGTATAA it was 0.31 kcal/mol; in that of TTCGGCACGTGCAGGC, -0.04 kcal/mol; in that of CGTTGCACGTGTAGGT, -0.03 kcal/mol.
Consider GGGTGCACGTGACTAG, for which the “relative binding free energy” value worked out at 0.09 kcal/mol.
In the case of CAGAGCACGTGTTTTG it was -0.03 kcal/mol; in that of GGTGTCACGTGTACTA, 0.24 kcal/mol.
Regarding TACCGCACGTGGGGTT, the “relative binding free energy” value was -0.25 kcal/mol.
With ATGTACACGTGTATCT, the “relative binding free energy” value is 0.22 kcal/mol.
Turning to CGAGGCACGTGTGAAG, the “relative binding free energy” value is -0.02 kcal/mol.
In the case of TTGGTCACGTGGGGTC it was -0.03 kcal/mol; in that of TAATTCACGTGTATTT, 0.13 kcal/mol.
TGCTTCACGTGAATGG: the “relative binding free energy” value is 0.44 kcal/mol.
In the case of GTGTTCACGTGAGGCC it was 0.34 kcal/mol; in that of TCGTGCACGTGTTGGA, -0.04 kcal/mol; in that of AGGTCCACGTGTGGAG, 0.11 kcal/mol.
As to TTCGGCACGTGTTGGC, the “relative binding free energy” value is -0.09 kcal/mol.
As for CTTAGCACGTGGGGTA, the “relative binding free energy” value was -0.13 kcal/mol.
GGGAGCACGTGTGTAA: the “relative binding free energy” value was -0.03 kcal/mol.
For AATGGCACGTGTTGTA, the “relative binding free energy” value was -0.21 kcal/mol.
On to GAATTCACGTGTTAGG, for which the “relative binding free energy” value worked out at 0.39 kcal/mol.
For GGTATCACGTGCATTT, the “relative binding free energy” value was determined as 0.4 kcal/mol.
In the case of TGGTCCACGTGAAAGT it was 0.22 kcal/mol.
As for TGGCTCACGTGGAAAG, the “relative binding free energy” value worked out at 0.32 kcal/mol.
In the case of GCTTACACGTGGATTT, the “relative binding free energy” value was determined as 0.13 kcal/mol.
Regarding AGGTCCACGTGTGGGA, the “relative binding free energy” value was 0.01 kcal/mol.
For the sequence GAACGCACGTGGGAGG, the “relative binding free energy” value was -0.21 kcal/mol.
For the sequence ACGTACACGTGTAGGG, the “relative binding free energy” value is -0.05 kcal/mol.
As for TATCGCACGTGGAAGG, the “relative binding free energy” value was -0.1 kcal/mol.
TTGTACACGTGAAGGA: the “relative binding free energy” value was found to be 0.19 kcal/mol.
Take ATGCGCACGTGAATGT: the “relative binding free energy” value stood at 0.18 kcal/mol.
As to ATTTTCACGTGAGTGG, the “relative binding free energy” value was 0.38 kcal/mol.
Turning to TGAGACACGTGTGGGT, the “relative binding free energy” value came to 0.03 kcal/mol.
In the case of TTGGTCACGTGGGGTG it was 0.03 kcal/mol; in that of AAGTACACGTGGATGA, 0.13 kcal/mol; in that of GGGCTCACGTGGGGCT, 0.1 kcal/mol.
As for TGAAGCACGTGTTGGA, the “relative binding free energy” value was -0.12 kcal/mol.
On to TTTTTCACGTGGATTG, for which the “relative binding free energy” value worked out at 0.23 kcal/mol.
As to CGGATCACGTGGGTCG, the “relative binding free energy” value was -0.02 kcal/mol.
On to GTTGTCACGTGGGAAC, for which the “relative binding free energy” value was 0.18 kcal/mol.
For CGGGTCACGTGGTAAA, the “relative binding free energy” value is -0.04 kcal/mol.
In the case of GGAGTCACGTGGGCAG it was 0.01 kcal/mol; in that of GAGTGCACGTGGTAAT, -0.04 kcal/mol; in that of TGTTCCACGTGTGGAA, 0.15 kcal/mol.
Regarding GGCGCCACGTGTGTGG, the “relative binding free energy” value was -0.04 kcal/mol.
On to AATGGCACGTGGTCGA, for which the “relative binding free energy” value is -0.17 kcal/mol.
Turning to AGGGTCACGTGTATGT, the “relative binding free energy” value amounted to 0.11 kcal/mol.
With TTGTACACGTGGGTGG, the “relative binding free energy” value was -0.01 kcal/mol.
As for GTGTGCACGTGGAGAG, the “relative binding free energy” value was -0.07 kcal/mol.
As for AGTCGCACGTGAGAGG, the “relative binding free energy” value stood at 0.28 kcal/mol.
For the sequence CAAGGCACGTGTGGCG, the “relative binding free energy” value is -0.15 kcal/mol.
In the case of GTGGGCACGTGCTATG it was -0.2 kcal/mol; in that of GTTCTCACGTGTGGGC, 0.28 kcal/mol.
Consider GAATTCACGTGTTCGT, for which the “relative binding free energy” value was determined as 0.3 kcal/mol.
With ATGGGCACGTGCTGGG, the “relative binding free energy” value is -0.13 kcal/mol.
TTATTCACGTGAAAGA: the “relative binding free energy” value is 0.41 kcal/mol.
In the case of ATGGGCACGTGAAGTA it was 0.03 kcal/mol; in that of TGTTACACGTGATACG, 0.12 kcal/mol.
With AATGTCACGTGTCGTG, the “relative binding free energy” value is 0.15 kcal/mol.
Turning to GGTGACACGTGAACGG, the “relative binding free energy” value was 0.33 kcal/mol.
On to TGGGTCACGTGTCCTG, for which the “relative binding free energy” value was 0.15 kcal/mol.
As for TGTATCACGTGAAGTG, the “relative binding free energy” value is 0.29 kcal/mol.
In the case of GGGTGCACGTGGAAGT it was 0.14 kcal/mol; in that of CTTAGCACGTGATGGG, 0.21 kcal/mol; in that of ATTTACACGTGGGTAA, -0.04 kcal/mol.
Turning to TGGTACACGTGTTGAG, the “relative binding free energy” value turned out to be 0.09 kcal/mol.
On to GAATGCACGTGCGGTG, for which the “relative binding free energy” value was -0.01 kcal/mol.
GCGTGCACGTGTATGG: the “relative binding free energy” value was -0.04 kcal/mol.
For AGGGTCACGTGCTGGG, the “relative binding free energy” value is 0.03 kcal/mol.
As for GTTTTCACGTGAGACT, the “relative binding free energy” value stood at 0.45 kcal/mol.
With TCTTGCACGTGTATGT, the “relative binding free energy” value was found to be 0.05 kcal/mol.
For the sequence TTGCTCACGTGGTGCG, the “relative binding free energy” value came to 0.06 kcal/mol.
Consider ATTGTCACGTGGATGC, for which the “relative binding free energy” value is -0.07 kcal/mol.
As to ATGGTCACGTGTGCAT, the “relative binding free energy” value is 0.12 kcal/mol.
For the sequence TTGGTCACGTGTTACA, the “relative binding free energy” value stood at 0.01 kcal/mol.
In the case of TTACTCACGTGTTATA it was 0.07 kcal/mol; in that of TCTGCCACGTGGTGGG, -0.29 kcal/mol.
In the case of TGTGTCACGTGGGATC it was 0.04 kcal/mol; in that of GGTGACACGTGCGGTT, 0.15 kcal/mol.
Turning to GGTTACACGTGTGACG, the “relative binding free energy” value came out at 0.09 kcal/mol.
In the case of GTGGTCACGTGTTGAG it was 0.13 kcal/mol; in that of TGATTCACGTGTGTTG, 0.21 kcal/mol.
In the case of TTGGGCACGTGAAATT it was 0.12 kcal/mol; in that of ATCGGCACGTGGGGTC, -0.34 kcal/mol.
With CATGGCACGTGGGGGA, the “relative binding free energy” value is -0.24 kcal/mol.
Take TGTTTCACGTGTTATC: the “relative binding free energy” value worked out at 0.18 kcal/mol.
For the sequence TGTGCCACGTGATGAT, the “relative binding free energy” value came out at 0.03 kcal/mol.
Take GTTTTCACGTGTCAGT: the “relative binding free energy” value is 0.46 kcal/mol.
With GCAAGCACGTGGGGCG, the “relative binding free energy” value is -0.3 kcal/mol.
Turning to AGTGTCACGTGTAGGT, the “relative binding free energy” value amounted to 0.09 kcal/mol.
In the case of GATATCACGTGGGGTC it was 0.04 kcal/mol; in that of CCTGTCACGTGGGGGA, -0.01 kcal/mol; in that of TGTAGCACGTGGTGCA, -0.12 kcal/mol.
In the case of GGAAGCACGTGGTAGA, the “relative binding free energy” value is -0.07 kcal/mol.
As for AAGGGCACGTGGCTAT, the “relative binding free energy” value was -0.18 kcal/mol.
Consider GGTAGCACGTGTCAGG, for which the “relative binding free energy” value is 0.01 kcal/mol.
In the case of TGTGTCACGTGAAGGG it was 0.25 kcal/mol; in that of GAGTCCACGTGTGGTG, 0.17 kcal/mol.
On to CGGTGCACGTGGAGGT, for which the “relative binding free energy” value was found to be 0.07 kcal/mol.
As to TGTAACACGTGGGGCC, the “relative binding free energy” value is -0.13 kcal/mol.
Take GTTGTCACGTGTCCGG: the “relative binding free energy” value was 0.24 kcal/mol.
Turning to CTGTTCACGTGTGTTA, the “relative binding free energy” value came out at 0.4 kcal/mol.
With GGTGACACGTGCTGGC, the “relative binding free energy” value came out at 0.05 kcal/mol.
